# Results taken from PubChem BioAssay AID686978 (National Center for Advancing Translational Sciences (NCATS), 2013).
# Values joined by “and” are separate entries in the source; they are usually repeats but may differ in a detail not shown here. Equal entries are not always repeated. About 64,000 (15%) of roughly 420,000 compounds were called active. This list was built around the results that the source calls inconclusive (neither active nor inactive); the mix of calls is not that of the screen. Calls follow the shape of the dose curve; as a rule, active = well fitted inhibition curve with a large enough effect; inconclusive = small, poorly fitted or top-dose-only effect; inactive = flat fitted curve, though single readings scatter. Potencies of inconclusive entries are doubtful fits and often do not repeat.
# Assay: qHTS for Inhibitors of human tyrosyl-DNA phosphodiesterase 1 (TDP1): qHTS in cells in absence of CPT; also: nearly all actives have a fitted effect of over 55% in size
# Settings: DT40 Tdp1-/- hTDP1 cells, no CPT, ATP luminescence, 48 h; series mostly up to 46.2 µM
# Summary of the method: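 Chicken DT40 Tdp1-/- cells stably complemented with human TDP1 were seeded at 400 cells/well with DMSO in place of 20 nM camptothecin. After compound pinning, cells grew at least 48 hr at 37 °C; viability read by CellTiter-Glo luminescence.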
# Potency is read from the fitted curve at half-maximal effect; tags tell the direction and shape of the fitted curve.
row,Structure (SMILES),Potency
1,c1ccc(Cc2nnc3n2N=C(c2ccccc2)CS3)cc1,inactive
2,CCCCN1C(=O)N(c2ccc(Cl)cc2)C(C)(O)CC1(C)C (configuration not stated),"inconclusive: 29.1 µM [inhibitor, single point]"
3,O=c1[nH]c2c(oc3ccccc32)c(=O)n1Cc1ccccc1,"inconclusive: 0.103 µM [inhibitor, full curve, poor fit]"
4,CC1S/C(=N/N=C/c2ccco2)N(Cc2ccccc2)C1=O (configuration not stated),active: 9.2 µM
5,O=C(CCn1ccc2cc(S(=O)(=O)N3CCCC3)ccc21)NCc1ccccc1Br,"inconclusive: 29.1 µM [inhibitor, single point]"
6,CC(C)Oc1ccc(C(=O)Nc2c(C(=O)Nc3cccc(F)c3)oc3ccccc23)cc1,"inconclusive: 20.6 µM [inhibitor, single point]"
7,Clc1cccc(N/N=C/c2ccncc2)c1,"inconclusive: 16.4 µM [inhibitor, single point]"
8,CCOC(=O)CNc1nc(C(C)(C)C)nc2c1nnn2Cc1ccccc1,"inconclusive: 20.6 µM [inhibitor, single point]"
9,CCCCNC(=O)Nc1ncn[nH]1,inactive
10,COc1ccc(CCN2CCCC(CN(C)Cc3cc(OC)ccc3OC)C2)cc1 (configuration not stated),"inconclusive: 29.1 µM [inhibitor, single point]"
11,COc1cccc(C(C(=O)NCc2ccccc2)N(C(=O)c2csnn2)C2CC2)c1 (configuration not stated),"inconclusive: 29.1 µM [inhibitor, single point]"
12,CN(CC(=O)Nc1ccc(F)c(F)c1F)C(=O)CN1C(=O)NC2(CCCC2)C1=O,"inconclusive: 29.1 µM [inhibitor, single point]"
13,CCOC(=O)C1(O)CC(C)=NN1C(=O)c1cccc(Cl)c1 (configuration not stated),inactive
14,Cc1cc(S(=O)(=O)NCC(c2ccccc2)c2ccccc2)ccc1-n1cnnn1,"inconclusive: 14.6 µM [inhibitor, partial curve]"
15,COc1ccc(C)cc1Nc1cc(C)nc(C)n1,"inconclusive: 14.6 µM [inhibitor, partial curve, poor fit]"
16,COc1ccc(C(=O)NC2c3ccccc3-c3ccccc32)cc1,"inconclusive: 14.6 µM [inhibitor, partial curve]"
17,O=C(Nc1cccs1)Nc1c(F)cc(F)cc1Br,active: 23.1 µM
18,O=C(CN1C(=O)c2cccnc2Oc2ccc(Cl)cc21)Nc1cccc(C(F)(F)F)c1,active: 18.4 µM
19,COc1cc(NC(=O)CSc2ccc(-c3ccccn3)nn2)cc(OC)c1,"inconclusive: 18.4 µM [inhibitor, single point] and inconclusive: 29.1 µM [inhibitor, single point]"
20,CCOC(=O)/C(=C/c1ccc(OC(=O)c2ccncc2)cc1)C(C)=O,"inconclusive: 29.1 µM [inhibitor, single point]"
21,CCN1C(=O)C(CC(=O)Nc2ccc(C)cc2C)Nc2cc(S(=O)(=O)N(C)C)ccc21 (configuration not stated),"inconclusive: 29.1 µM [inhibitor, single point]"
22,CCn1c(=O)c2c(nc(SCC(=O)NCC3CCCO3)n2C)n(C)c1=O (configuration not stated),inactive
23,CCOC(=O)N1CCN(C(=O)c2ccc(CNS(=O)(=O)c3ccc(C)cc3)cc2)CC1,inactive
24,CCOc1ccccc1NC(=O)c1sc2nc(C)nc(N3CCOCC3)c2c1C,"inconclusive: 23.1 µM [inhibitor, single point]"

row,Structure (SMILES),Potency
1,c1ccc2c(-c3nc4ccccc4[nH]3)cccc2c1,active: 4.61 µM
2,CC(C)N=C1CC(C)(C)CC(=O)/C1=C(/O)CCCN1C(=O)c2ccccc2C1=O,inactive
3,COc1nc(-c2ccccc2)nc(C)c1CC(=O)O,inactive
4,CCCn1nc(C(=O)NNC(=O)CCOc2ccccc2OCC)c2ccccc2c1=O,inactive
5,O=C(Cc1ccc(-c2ccccc2)cc1)NCCS(=O)(=O)N1CCN(c2ccccc2)CC1,"inconclusive: 3.66 µM [inhibitor, full curve]"
6,CCC(c1nnnn1CCOC)N(Cc1cc2cc(C)c(C)cc2[nH]c1=O)CC1CCCO1 (configuration not stated),"inconclusive: 20.6 µM [inhibitor, single point]"
7,COc1ccccc1C(CC(=O)O)c1ccc2c(c1)OCO2 (configuration not stated),inactive
8,CCCn1c(=O)n(N)c2ccccc21,inactive
9,Cc1ccc(Cc2c(-c3ccco3)nc3c(C)cc(Br)cn23)cc1,active: 6.51 µM
10,CCOC(=O)c1ccc(NS(=O)(=O)N2CCCCCC2)cc1,"inconclusive: 29.1 µM [inhibitor, single point]"
11,CCN(CC(=O)NCc1ccco1)S(=O)(=O)c1ccc(OC)cc1,inactive
12,CCOC(=O)C1=C[C@@H](C(C)(C)C)N(S(=O)(=O)c2ccc(C)cc2)[C@H]1c1ccc(OC)cc1,active: 20.6 µM
13,CC/C(=N\Nc1ccc([N+](=O)[O-])cc1[N+](=O)[O-])c1ccc(O)cc1,"inconclusive: 29.1 µM [inhibitor, single point]"
14,CCCCn1c(N)c(N(CC(C)C)C(=O)COC(=O)Cc2cccc(OC)c2)c(=O)[nH]c1=O,inactive
15,FC(F)(F)c1ccc(NC(=S)NCc2ccccc2)cc1,"inconclusive: 25.9 µM [inhibitor, single point]"
16,CN1CN(C)c2ccc([N+](=O)[O-])c3cccc1c23,inactive
17,CC(=O)Nc1ccc(S(=O)(=O)N[C@@H](C)C(=O)OCC(=O)NC2CCCC2)cc1,inactive
18,CCOc1ccccc1OCCOc1ccccc1OC(C)C,"inconclusive: 16.4 µM [inhibitor, partial curve]"
19,CC(=O)N1CCc2c(sc(NC(=O)C3COc4ccccc4O3)c2C(N)=O)C1 (configuration not stated),"inconclusive: 29.1 µM [inhibitor, single point]"
20,Oc1cccc(C=Nc2cccc3ccccc23)c1O,"inconclusive: 29.1 µM [inhibitor, single point]"
21,COc1ccc(NC(=O)C2CCCN2S(=O)(=O)c2ccc(C)cc2)cc1 (configuration not stated),inactive
22,COc1ccccc1NC(=O)C1=C(C)Nc2nc3ccccc3n2C1c1cccc(OC)c1OC (configuration not stated),"inconclusive: 20.6 µM [inhibitor, single point]"
23,Cc1ccn2c(=O)cc(COc3cccc(NC(=O)Nc4cccc(Cl)c4C)c3)nc2c1,active: 23.1 µM
